Reference: PMC6919601, “Identification of Plasmodium dipeptidyl aminopeptidase allosteric inhibitors by high throughput screening” (PLoS ONE, 2019)
Screen size: about 110,000 compounds; about 230 (0.21%) showed an effect of 50% or more. Some of the results follow.

What follows are compounds tested against DPAP1 (Plasmodium falciparum, UniProt Q8IIJ9) (assay: primary screen, percent inhibition; read by cleavage of a fluorogenic dipeptide substrate; higher = more effect of the substance).
Set-up: species or system P. falciparum D10 trophozoite lysates; single well
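Further: 30 min substrate incubation versus DMSO and 10 µM JCP410 controls.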

Chain of DPAP1 (Q8IIJ9 whole entry, looked up): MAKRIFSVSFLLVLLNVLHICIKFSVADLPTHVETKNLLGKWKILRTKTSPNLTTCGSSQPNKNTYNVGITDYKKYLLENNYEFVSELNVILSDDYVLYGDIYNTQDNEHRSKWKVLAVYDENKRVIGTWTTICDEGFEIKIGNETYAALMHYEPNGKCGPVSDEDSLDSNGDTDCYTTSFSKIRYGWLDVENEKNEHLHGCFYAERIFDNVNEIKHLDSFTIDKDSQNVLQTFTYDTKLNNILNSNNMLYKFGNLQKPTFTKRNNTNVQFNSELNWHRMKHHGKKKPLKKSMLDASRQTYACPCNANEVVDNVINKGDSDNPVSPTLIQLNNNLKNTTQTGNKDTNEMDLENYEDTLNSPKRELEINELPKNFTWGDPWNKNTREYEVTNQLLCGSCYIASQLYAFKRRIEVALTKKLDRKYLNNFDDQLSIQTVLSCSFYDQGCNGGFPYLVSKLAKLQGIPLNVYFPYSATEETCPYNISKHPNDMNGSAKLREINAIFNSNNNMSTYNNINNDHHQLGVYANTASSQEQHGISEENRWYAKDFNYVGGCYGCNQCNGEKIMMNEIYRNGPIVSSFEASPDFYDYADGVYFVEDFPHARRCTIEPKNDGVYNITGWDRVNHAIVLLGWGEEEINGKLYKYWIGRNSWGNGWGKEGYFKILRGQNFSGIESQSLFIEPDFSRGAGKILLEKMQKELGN

Structure (SMILES)	% Inhibition @ 10 uM [%]
Clc1ccc(Nc2nc(-c3ccc(Cl)c(Cl)c3)cs2)cc1	-9.97
Cc1nn(-c2cc(Oc3ccccc3)ncn2)c(N)c1C#N	-2.78
CCCc1ccc(-c2ccc(C(=O)O)cc2)nc1	0.132
O=C(Cc1cccs1)Nc1noc2ccccc12	0.569
Cc1cc(C(F)(F)F)nn1Cc1ccc(C(=O)Nc2ncc(Br)s2)o1	3.94
O=C(COc1ccc(Br)cc1)Nc1cc(Cl)ccc1Cl	3.54
CC1CCN(S(=O)(=O)c2ccc(NC(=O)c3cccc(NC(=O)c4ccccc4)c3)cc2)CC1	0.528
CCC(=O)N1c2ccccc2N=C2CC(C)(C)CC(O)=C2C1c1ccc(F)cc1 (centres unmarked)	-0.736
CC(C)CNC(CC(=O)O)c1ccccc1 (centres unmarked)	-0.834
Cc1nc2cc(S(=O)(=O)N3CCC(C(=O)N(C)Cc4ccccc4)CC3)ccc2n1C1CCCC1	3.24
CCOc1cc(/C=C2/SC(=O)N(C(C)C)C2=O)cc(Cl)c1O	-1.61
CCN(CC)CCCNC(=O)CNC(=O)Cn1c(C)cc2ccccc2c1=O	-3.78
CCN(CC)C(=O)c1cc2ccccc2oc1=O	-2.32
Cc1cc(C)c2nc(N3CCCC(C(=O)NCc4ccccc4)C3)sc2c1 (centres unmarked)	0.137
CCn1c(/C(C#N)=C/c2cccc(O)c2)nc2ccccc21	-2.87
COc1ccc(CCNC(=O)Cn2cnc3c(oc4ccccc43)c2=O)cc1OC	0.526
COc1ccc2c(c1C)CCC/C2=N\OC(=O)c1ccccc1F	-1.92
N#CC1=C(N)Oc2c(c(=O)oc3ccccc23)C1c1cccc(C(F)(F)F)c1 (centres unmarked)	-5.96
O=C(c1cc(-c2ccc(Cl)s2)nc2ccccc12)N1CCN(c2ncccn2)CC1	4.28
C=CCNC(=O)Nc1nc2ccc(OCC)cc2s1	-8.95
C=CCn1c(=O)c2c(nc(Br)n2Cc2ccc(Cl)cc2)n(C)c1=O	-3.37
COc1cccc(Oc2c(C(F)(F)F)oc3cc(O)ccc3c2=O)c1	0.628
CC1CCCC(NC(=O)Cn2ncc3c4ccccc4n(Cc4ccccc4)c3c2=O)C1C (centres unmarked)	0.137
CCN1C(=O)N/C(=C/c2ccc(-c3ccc(C(=O)O)c(Cl)c3)o2)C1=O	5.09
Cc1ccc(S(=O)(=O)/C(C#N)=C/c2c(Oc3ccccc3Cl)nc3ccccn3c2=O)cc1	0.189

Structure (SMILES)	% Inhibition @ 10 uM [%]
O=C(CSc1nnc(CNC(=O)c2c(F)cccc2Cl)o1)NCCc1ccccc1	-7.21
CC(C)CC(NC(=O)Nc1ccc2ncsc2c1)C(=O)NCC#N (centres unmarked)	10.2
CCc1c(C)sc(NC(=O)C2CC3CCC2C3)c1C#N (centres unmarked)	-1.06
CCn1c2ccccc2c2cc(CN3CCN(c4cccc(C(F)(F)F)c4)CC3)ccc21	-0.828
CCCc1nc(SC)ncc1C(=O)NCc1cc(OCC)c(OCC)c(OCC)c1	2.42
COc1cccc(C2C3=C(O)CCCC3=NC(C)=C2C(=O)Nc2ccc(C)cn2)c1OC (centres unmarked)	2.26
Cc1ccc(C)c(CN2CCC(CNC(=O)CN3Cc4ccccc4C3=O)CC2)c1	3.87
COC(=O)c1nnn(-c2cccc(C)c2C)c1C(=O)OC	-5.27
CC(C)CS(=O)(=O)C1=NSC2=NC(=O)/C(=C\c3cccc4ccccc34)C(=N)N21	-3.39
CCCCOc1ccc(C2C(C#N)=C(N)Oc3cc(O)ccc32)cc1 (centres unmarked)	-2.07
Clc1cccc(CNc2ncnc3c2cnn3-c2ccccc2)c1	-4.28
Cc1ccc(S(=O)(=O)Cc2nc(-c3ccc(C(=O)NCCN4CCOCC4)cc3)oc2C)cc1	-3.84
Cc1cccc(C(=O)NCc2cccs2)c1	1.7
CCC(CCC(C)C1CCC2C3CC=C4CC(O)CCC4(CO)C3CCC12C)C(C)C (centres unmarked)	2.05
O=C(CN1CCOCC1)N1CCN(S(=O)(=O)c2ccccc2)C1c1ccccc1 (centres unmarked)	-0.169
CCOC(=O)C1=C(CNCc2ccccc2)NC(=O)NC1c1ccccc1 (centres unmarked)	0.44
COc1ccc(/C=C2N=C(/C=C/c3ccc(OC)cc3)OC\2=O)cc1	4.38
COc1ccc(CNC(=O)C2CCN(c3nn4c(=O)cc(C)nc4s3)CC2)cc1	-5.63
COc1ccc(NC(=O)c2cc3n(n2)C(C(F)(F)F)CC(c2ccc(F)cc2)N3)c(OC)c1 (centres unmarked)	-2.29
Cc1noc(C(=O)NC(C)(C)C)c1Cl	-3.45
Cc1ccc(OCc2nc(-c3ccc(C(=O)N4CCN(C(=O)c5ccco5)CC4)cc3)oc2C)cc1	5.24
COCCCNC(=O)CSc1[nH]c(-c2ccccc2)nc1-c1ccccc1	-1.58
COc1ccc(-c2nc(CS(=O)CC(=O)NCCc3ccc(Cl)cc3)c(C)o2)cc1 (centres unmarked)	-2.85
CC(CN1CCCN(C)CC1)c1ccccc1 (centres unmarked)	-0.0494
COc1ccc(Br)cc1CNC(=O)c1cc(-c2ccccc2O)on1	3.29

Structure (SMILES)	% Inhibition @ 10 uM [%]
O=C(c1cccnc1)N1N=C2CCCCCC2C1(O)C(F)(F)F (centres unmarked)	-1.79
CC1CC(Nc2ccccc2)c2ccccc2N1C(=O)c1ccc(C(C)(C)C)cc1 (centres unmarked)	-0.268
CS(=O)(=O)N(CC(N)=O)c1cccc2ccccc12	-5.99
Clc1cccc(N2CCN(Cc3cccnc3)CC2)c1	6.8
Cc1nn(-c2ccccc2)c(-n2cccc2)c1C(=O)N1CCC(C(=O)NCc2ccccn2)CC1	3.2
Cc1[nH]c(C)c(C(=O)O)c1CNC1CCCCC1C (centres unmarked)	1.41
Cc1c(C(=O)NC2CCSC2=O)cccc1[N+](=O)[O-] (centres unmarked)	0.815
CCOc1nc(C)ccc1-c1noc(-c2ccccc2C)n1	6.82
CCOc1ccc(CCNC2=NS(=O)(=O)C(c3ccc(C)cc3)=C2C)cc1OCC	2.27
Cc1ccc(-c2noc(CSc3nc(O)cc(-c4ccccc4)n3)n2)cc1	-2.53
Cc1cc(C)cc(NC(=O)CSc2ncn(-c3ccccc3)n2)c1	0.316
Cc1ccc(-c2c3c(=O)n(C)c(=O)n(C)c3cn2C2CCCCCC2)cc1	0.366
CCOC(=O)N1CCN(C(=O)C2CCN(c3nn4c(=O)cc(C)nc4s3)CC2)CC1	-3.79
CC1=CN2CC(O)CN=C2C=C1 (centres unmarked)	-0.197
CCCCNC(=O)c1cc(-c2ccc3c(c2)OCO3)nc2ccccc12	2.03
COc1ccccc1CNC(=O)CCCn1c(=O)c2cccn2c2cccnc21	2.3
Cc1nc2cc(S(=O)(=O)N3CCC(C(=O)NCC4CCCO4)CC3)ccc2n1C1CCCC1 (centres unmarked)	-3.53
CCOc1cc(C2NC(=O)NC3=C2CCc2ccccc23)ccc1O (centres unmarked)	-1.18
COCCn1c(SCC(=O)Nc2nc(C)cs2)nc2c(c1=O)SCC2	-1.62
COc1ccc(C(=O)NC23CC4CC(CC(C4)C2)C3)cc1OC	3.15
CCN(CC)c1ccc(NC(=O)Nc2ccccc2)cc1	-1.37
Cc1ccc(-c2nc(CS(=O)(=O)CC(=O)NCCN3CCCC3)c(C)o2)cc1	-1.89
O=C(C1=C(O)C(=O)N(CCCn2ccnc2)C1c1ccc(O)cc1)c1ccc2c(c1)OCCO2 (centres unmarked)	-5.06
CC(=O)Nc1ccc2oc(-c3ccccc3)nc2c1	0.986
COC(=O)c1ccc(Cn2cnc3c2c(=O)n(C)c(=O)n3C)cc1	-3.28

Structure (SMILES)	% Inhibition @ 10 uM [%]
Cc1ccc(Cn2nc(C)c(NC(=O)c3onc(C)c3Cl)c2C)cc1	-5.25
O=C1/C(=C/c2cc(Br)ccc2O)Sc2ccccc21	-7.8
CC1(C)CC(O)=C/C(=N/C2CC(C)(C)NC(C)(C)C2)C1	-2.8
Cc1ccccc1-c1nc(CS(=O)(=O)CC(=O)NCCCN2CCCC2)c(C)o1	3.19
CNc1nc(C)c([N+](=O)[O-])c(Nc2ccc(OC)cc2)n1	-2.42
Cc1cc(O)n2nc(C(F)(F)F)c(-c3ccc(Cl)cc3)c2n1	-2.28
Cc1ncc(CO)c2cc(C(=O)O)c(=O)oc12	-3.13
COc1ccc(C2C3=C(O)CC(c4ccco4)CC3=Nc3ccccc3N2C(C)=O)cc1OC (centres unmarked)	-4.67
CCN(CC)CCN(CC)Cc1ccc(F)c(Br)c1	3.19
CCN(C(=O)COc1ccccc1Cl)c1ccccc1	-3.58
CNC(=O)C1CC(=O)N(CCc2ccc(OC)cc2)/C(=N/c2cccc(C(F)(F)F)c2)S1 (centres unmarked)	3.79
Cc1cccc(NC(=O)CSc2nccn2C)c1	-2.78
COCCCNC(=O)CCS(=O)(=O)Cc1ccc(C)cc1	-2.99
CCN1CCCC1CNC(=O)C1c2ccccc2C(=O)N(C2CCCC2)C1c1cccs1 (centres unmarked)	-5.92
COc1ccc(C2Nc3ccccc3N=C3CC(C)(C)CC(O)=C32)c(OC)c1 (centres unmarked)	0.634
Cc1ccc(CNC(=O)Cn2ccc3ccccc3c2=O)o1	-0.631
CC(C)=CCC/C(C)=C/CN1CCN(c2ccccc2F)CC1	1.74
Cn1cccc1CN1CCN(Cc2ccccc2)CC1	2.1
CCN(Cc1ccccc1)C(=O)Cn1c(=O)n(CC(=O)NCc2ccco2)c(=O)c2sccc21	-4.43
O=C(O)c1ccc(CNCc2ccc3c(c2)OCO3)s1	-0.637
CCOC(=O)C1=C(C)OC(n2cccc2)=C(C#N)C1c1ccc(OC)cc1 (centres unmarked)	-0.0108
Cc1ccc(CCNC(=O)C2CCN(c3ncnc4c3nc3n4CCCCC3)CC2)cc1	1.19
CCOc1ccc(-n2nnc(-c3nc(-c4ccccc4F)no3)c2N)cc1	-0.212
